Data as given in PubChem BioAssay AID1745845 (National Center for Advancing Translational Sciences (NCATS), 2022).
Several values for one entry are separate records, joined by “and”; a condition that tells them apart may be missing. Equal values may be shown once. About 2,600 (0.72%) of roughly 360,000 compounds were called active. The inconclusive results got no clear call from the source; some entries with a clear call stand among them for comparison. The call rests on the fitted dose curve; in most records, active means well fitted inhibition curve with a large enough effect; inconclusive means small, poorly fitted or top-dose-only effect; inactive means no such curve, though single readings can be large or run the other way. Potencies beside an inconclusive call are fits to weak or partial responses and may not hold up.

Assay: Primary qHTS for Inhibitors of ATXN expression; further: nearly all actives have a fitted effect of over 55% in size
Conditions: HEK-293 ATXN2-luciferase reporter, luminescence, 24 h; activity change, negative = inhibition: at 57 µM (top of the series)
How it was run: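 ATXN2-luciferase reporter cells (luciferase flanked by upstream and downstream ATXN2 gene portions) were treated 24 h at 37 °C with compounds at up to 57 uM. SteadyGlo luminescence gave expression; GF-AFC fluorescence gave viability.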
On the % scale 0 is the no-effect control and ±100 the full control effect; potency means the concentration at half of the fitted maximal effect; tags describe the fitted curve by direction and shape.

Potency, inactive:
C#CCNC(=O)C[C@@H]1C[C@@]2(C(=O)OCC)CCCC=C2N(Cc2ccc3c(c2)OCO3)C1=O
N/C(=N\OC(=O)C1CCCCC1)c1ccc(Br)cc1
CSc1nc(-c2ccc(F)cc2)cc(=O)[nH]1
COc1cccc(C=Nc2ccccc2C(=O)Nc2ccccc2)c1O
O=C(NCCCN1CCOCC1)c1ccc2c(=O)n(Cc3ccc(Cl)cc3)c(=S)[nH]c2c1
CCOc1cc2[nH]c(=S)n(CCCN3CCOCC3)c(=O)c2cc1OCC
COc1ccc(NC(=O)CN2C(=O)COc3ccc(S(=O)(=O)Nc4ccccc4)cc32)cc1
CCNC(=O)C1(C)CCCN1C(=O)c1ccc(-c2ccccc2)cc1 (configuration not stated)
CC1(C)NC(=O)N(CC(=O)OCC(=O)Nc2c(Br)cc([N+](=O)[O-])cc2Br)C1=O
O=C(NC1CC1)C1CC(=O)N(c2cccc(Cl)c2Cl)C1 (configuration not stated)
CCc1ccc(N2CN(Cc3ccco3)CNC2=S)cc1
CCc1ccccc1N1CC(c2nnc(NC(=O)c3ccco3)s2)CC1=O (configuration not stated)
COc1ccc(S(=O)(=O)N2CCCCC2)cc1NC(=O)C1CC(=O)N(Cc2ccccc2)C1 (configuration not stated)
CCc1nc(-c2cc(S(=O)(=O)N3CCN(c4ccc(F)cc4)CC3)ccc2OC)no1
COc1ccc(NC(=O)/C=C/c2ccc(OC(F)F)cc2)cn1
CC(C)(C)NC(=O)NC(=O)COC(=O)Cc1c(Cl)cccc1Cl
CCOC(=O)c1cc(C#N)c(Oc2ccccc2)nc1-c1ccccc1
Nc1nc(N)c(S(=O)(=O)c2ccccc2)c(Nc2ccc(Br)cc2)n1
Brc1cccc(OCCCNC2CCCC2)c1
S=C(c1ccc(-c2ccc(Cl)c(Cl)c2)o1)N1CCOCC1
O=C(O)CCCN=C1NC2(CCCC2)Cc2ccccc21
Cc1nnc(NC(=O)c2cccc(S(=O)(=O)N3CC(c4ccccc4)CC3=O)c2)s1 (configuration not stated)
CC(C)C[C@H](NC(=O)Nc1cccc(Br)c1)C(=O)O
OCC1(Cc2ccc(Cl)cc2)CCN(Cc2ccc3nsnc3c2)CC1

Potency, inconclusive:
O=C(CCl)NC(=O)NC12CC3CC(CC(C3)C1)C2 31.6 µM [inhibitor, single point]
COc1ccc(-c2cc(NC=O)c3ncc(-c4cccc(C(F)(F)F)c4)n3c2)cc1OC 39.8 µM [inhibitor, single point]
CCN(CC)CCn1c2ccccc2c2nc3ccc([N+](=O)[O-])cc3cc21 1.58 µM [inhibitor, full curve]
Cc1cccc(NCc2nc3ccccc3n2CCOc2ccccc2C)c1 39.8 µM [inhibitor, partial curve, poor fit]
Cc1cccc(Nc2nc(NCCCN3CCOCC3)nc(N)c2[N+](=O)[O-])c1 14.1 µM [inhibitor, partial curve, poor fit]
CC(=O)c1c(C)[nH]c(C(=O)Nc2nc(-c3ccc(-c4ccccc4)cc3)cs2)c1C 39.8 µM [inhibitor, single point]
c1ccc(-c2nccc(-c3ccc(-n4cnc5ccccc54)cc3)n2)cc1 15.8 µM [inhibitor, partial curve, poor fit]
O=C(c1ccco1)N1CCN(c2ncnc3c2[nH]c2ccc(Br)cc23)CC1 13.4 µM [inhibitor, partial curve, poor fit]
CC(C)=CCCC1(C)C=Cc2c(ccc3c2[nH]c2cc(O)c(C)cc23)O1 (configuration not stated) 39.8 µM [inhibitor, single point]
O=C(CN1CCN(C(=O)c2ccc(-c3nc4ccccc4s3)o2)CC1)Nc1ccccc1Cl 2.24 µM [inhibitor, partial curve, poor fit]
CCCc1cc(-c2[nH]ncc2-c2ccc3c(c2)OCCCO3)c(O)cc1O 31.6 µM [inhibitor, single point]
CCCCCn1c(=O)[nH]c2cc(C(=O)N3CCN(c4ccc(C(C)=O)cc4)CC3)ccc2c1=O 3.55 µM [inhibitor, partial curve, poor fit]
COc1cc(NC(=O)c2cc(-c3ccccc3O)no2)cc(OC)c1OC 14.1 µM [inhibitor, partial curve, poor fit]
COc1ccc2nc(C)cc(NCc3ccc(F)cc3)c2c1 14.1 µM [inhibitor, partial curve]
CCOc1ccc(S(=O)(=O)N(C)c2ccc(OCC(=O)NCC3CCCCC3)cc2)cc1 39.8 µM [inhibitor, single point]
CCOC(=O)c1cc(NC(=O)c2ccc(Cl)cc2)c(=O)oc1-c1ccccc1 7.08 µM [inhibitor, partial curve, poor fit]
COC(=O)c1c(SCC(=O)Nc2cccc(C(F)(F)F)c2)[nH]c2ccccc2c1=O 14.1 µM [inhibitor, partial curve, poor fit]
COc1ccc(/C=C/C(=O)NC(=S)Nc2cc3oc4ccccc4c3cc2OC)cc1 2.82 µM [inhibitor, partial curve, poor fit]
CCOC(=O)c1ccc(N2C(=O)c3n[nH]c(-c4cccs4)c3C2c2ccc(O)c(OC)c2)cc1 (configuration not stated) 39.8 µM [inhibitor, single point]
COc1ccc(/C=C2/CCCC(CN(C)C)C2=O)cc1 (configuration not stated) 21.2 µM [inhibitor, partial curve, poor fit]
Cc1cccc(C)c1OCC(=O)Nc1nonc1-c1ccc(Br)cc1 22.4 µM [inhibitor, partial curve]
Cc1ccc(C(=O)Nc2ccc(-n3c(C)nc4ccccc4c3=O)cc2)cc1[N+](=O)[O-] 12.6 µM [inhibitor, partial curve]
O=C(Nc1ccc(F)c(Cl)c1)C1Cc2c(-c3ccc(Cl)cc3)ccnc2O1 (configuration not stated) 35.5 µM [inhibitor, single point]
N/C(=N\NC(=O)c1sccc1OCc1ccc(Cl)cc1Cl)c1ccccn1 25.1 µM [inhibitor, single point]
COc1cc2c(cc1NC(=O)CC1SC(N3CCCC3)=NC1=O)oc1ccccc12 (configuration not stated) 39.8 µM [inhibitor, partial curve, poor fit]
CCc1nc2c(OCc3ccc(Cl)cc3)cccn2c1N(C=O)Cc1ccc(OC)cc1 39.8 µM [inhibitor, single point]
O=C(C[C@H]1C/C=C\C[C@H](NC(=O)OCC2c3ccccc3-c3ccccc32)C(=O)OC[C@H](Cc2ccccc2)NC1=O)N[C@H](CO)Cc1ccccc1 28.2 µM [inhibitor, single point]
O=C(Nc1cccc(-c2nc3ncccc3o2)c1)c1ccc(-c2cccc(Cl)c2Cl)o1 3.55 µM [inhibitor, single point]
CN(C)c1ccc(/C=N/Nc2nc3ccccc3o2)cc1 12.6 µM [inhibitor, single point]
Cc1ccc(-n2c(SCc3ccccc3F)nc3[nH]ncc3c2=O)cc1C 39.8 µM [inhibitor, single point]
CCOC(=O)N1CCN(c2ncnc3c2[nH]c2ccc(F)cc23)CC1 14.1 µM [inhibitor, partial curve, poor fit]
Cc1oc(-c2ccccc2F)nc1CS(=O)(=O)CC(=O)N1CCN(c2cccc(C(F)(F)F)c2)CC1 20 µM [inhibitor, partial curve, poor fit]
CCCCc1c(-c2ccccc2Br)ncn1CCc1ccccc1OC 39.8 µM [inhibitor, single point]
C[C@@H]1CN([C@@H](C)CO)C(=O)Cc2cc(NC(=O)Nc3ccc(C(F)(F)F)cc3)ccc2O[C@@H]1CN(C)S(=O)(=O)c1ccc(Cl)cc1 25.1 µM [inhibitor, single point]
OC(c1ccccc1)(c1nc(-c2cc3ccccc3o2)cs1)C(F)(F)F (configuration not stated) 39.8 µM [inhibitor, single point]
Cn1nnnc1Sc1ncnc2scc(-c3ccc(-c4ccccc4)cc3)c12 22.4 µM [inhibitor, partial curve]
COc1ccc(F)cc1S(=O)(=O)NCCc1csc(-c2ccc(Cl)cc2)n1 39.8 µM [inhibitor, single point]
COc1ccccc1/C=C1\SC(=S)N(CCC(=O)NNC(=O)c2ccccc2OC)C1=O 26.7 µM [inhibitor, partial curve]

Potency, active:
Cc1ccc(N(NC(=O)C(O)(c2ccccc2)c2ccccc2)C(=O)CCl)cc1 28.2 µM
Oc1c(C(Nc2nccs2)c2ccc(C(F)(F)F)cc2)ccc2cccnc12 (configuration not stated) 12.6 µM
O=C1C=CC(=O)N1CCCCCCCCCCN1C(=O)C=CC1=O 10 µM
COC(=O)c1ccccc1NC1=C/C(=N\S(=O)(=O)c2cccs2)c2ccccc2C1=O 8.91 µM and 3.98 µM

Activity change, negative = inhibition, inconclusive:
COc1ccc(/C=C2\SC(=S)N(CCC(=O)Nc3ccccc3C(=O)O)C2=O)cc1 -46.5% [inhibitor]
